# Test results: a collection of fitness landscapes (doi:10.1016/j.celrep.2020.107928)
# In all, about 81,000 sequences were measured (“one-hybrid fitness for binding NBS DNA”: median about -0.1, highest 2% from about 0.36 on). This is one part of the list.
# B1: Caulobacter ParB omega fusion; a variant is named by its letters at X, in order, B8GW30 (parent)
# chain: MESVVVGEPGMSEGRRGLGRGLSALLGEVDAAPAQAPGEQLGGSREAPIEILQRNPDQPRRTFREEDLEDLSNSIREKGVLQPILVRPSPDTAGEYQIVAGERAWRAAQRAGLKTVPIMVRELDDLAVLEIGIIENVQRADLNVLEEALSYKVLMEKFERTQENIAQTIGKSXSHVANXMRLLXLPDEVQSYLVSGELTAXHARAIAAAADPVALAKQIIEGGLSVRETEALARKAPNLSAGKSKGGRPPRVKDTDTQALESDLSSVLGLDVSIDHRGSTGTLTITYATLEQLDDLCNRLTRGI
# Variants of: B1
# Experiment: one-hybrid fitness for binding NBS DNA (the Noc-binding site; scaled: cognate 1, non-cognate 0); higher = stronger binding
# Details: with NBS DNA site
# In short: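 The reporter was HIS3, with the binding site 19 bp from the promoter, in E. coli USO used for bacterial one-hybrid selection of Caulobacter ParB libraries with four specificity codons randomised. Growth was on M9 lacking histidine, with 0.1 mM IPTG and 5 mM 3-AT, for 48 hours at 37°C. Illumina sequencing covered plasmids before and after selection; three replicate libraries were pooled and variants with under 10 reads dropped. A fitness score is the log change in variant-to-wild-type read ratio, rescaled to the cognate and non-cognate references.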
row,Variant,one-hybrid fitness for binding NBS DNA
1,HNNV,≤ 0.2
2,LSQY,≤ 0.2
3,CLVD,≤ 0.2
4,DSWV,≤ 0.2
5,ALRR,0.207
6,CMTG,≤ 0.2
7,HGTE,≤ 0.2
8,HRQS,≤ 0.2
9,WKRG,≤ 0.2
10,RCVL,≤ 0.2
11,EYLS,≤ 0.2
12,TPGL,≤ 0.2
13,LTKV,≤ 0.2
14,AGRI,≤ 0.2
15,PETT,≤ 0.2
16,LVKY,≤ 0.2
17,SHFL,≤ 0.2
18,ISTC,≤ 0.2
19,SPRL,≤ 0.2
20,KRRC,0.273
21,EGAD,≤ 0.2
22,RGVV,≤ 0.2
23,FYLR,≤ 0.2
24,QAFT,0.326

row,Variant,one-hybrid fitness for binding NBS DNA
1,CYTT,≤ 0.2
2,AYHN,≤ 0.2
3,ASMC,≤ 0.2
4,QLNV,≤ 0.2
5,MQLN,≤ 0.2
6,GVAS,≤ 0.2
7,KKVF,≤ 0.2
8,YPDV,≤ 0.2
9,RDAA,≤ 0.2
10,WIMT,≤ 0.2
11,GHRF,≤ 0.2
12,TDHG,≤ 0.2
13,APAF,≤ 0.2
14,WGAE,≤ 0.2
15,FWST,≤ 0.2
16,PRAP,≤ 0.2
17,FQAC,≤ 0.2
18,IACG,≤ 0.2
19,TIFV,≤ 0.2
20,DTGI,≤ 0.2
21,NHGC,≤ 0.2
22,CPRC,≤ 0.2
23,DCVS,≤ 0.2
24,QQRF,0.387

row,Variant,one-hybrid fitness for binding NBS DNA
1,QCQK,≤ 0.2
2,PSDP,≤ 0.2
3,AMNT,≤ 0.2
4,GPYT,≤ 0.2
5,RQLG,≤ 0.2
6,AIDE,≤ 0.2
7,ACRY,≤ 0.2
8,QSLW,≤ 0.2
9,RDFT,≤ 0.2
10,IWQG,≤ 0.2
11,YPHR,≤ 0.2
12,RWHM,≤ 0.2
13,TWVL,≤ 0.2
14,AMII,≤ 0.2
15,NCTG,≤ 0.2
16,SNKW,≤ 0.2
17,FHLD,≤ 0.2
18,QVLP,≤ 0.2
19,RPFT,≤ 0.2
20,HRAM,≤ 0.2
21,RLVM,≤ 0.2
22,QLNK,≤ 0.2
23,FGCL,≤ 0.2
24,PGRC,≤ 0.2

row,Variant,one-hybrid fitness for binding NBS DNA
1,PDWT,≤ 0.2
2,TMAR,≤ 0.2
3,YHET,≤ 0.2
4,ANHL,≤ 0.2
5,RWNC,≤ 0.2
6,PHNQ,≤ 0.2
7,PLYF,≤ 0.2
8,PIVS,≤ 0.2
9,YDPR,≤ 0.2
10,NWQV,≤ 0.2
11,TYLF,≤ 0.2
12,CAFS,≤ 0.2
13,TSIK,≤ 0.2
14,YQCR,≤ 0.2
15,VYLA,≤ 0.2
16,TFML,≤ 0.2
17,FVIL,≤ 0.2
18,NNAI,≤ 0.2
19,PGLA,≤ 0.2
20,DRYC,≤ 0.2
21,YIDS,≤ 0.2
22,PWHC,≤ 0.2
23,DVMR,≤ 0.2
24,LKKS,≤ 0.2

row,Variant,one-hybrid fitness for binding NBS DNA
1,LHIC,≤ 0.2
2,NSGA,≤ 0.2
3,HAIG,≤ 0.2
4,PIRL,≤ 0.2
5,LMNE,≤ 0.2
6,CFCT,≤ 0.2
7,EYEW,≤ 0.2
8,VIKT,≤ 0.2
9,ATGK,≤ 0.2
10,LCCL,≤ 0.2
11,TNPR,≤ 0.2
12,RTCK,≤ 0.2
13,QIWS,0.247
14,RQQH,≤ 0.2
15,GWQT,≤ 0.2
16,AALA,≤ 0.2
17,CWTE,≤ 0.2
18,GALG,≤ 0.2
19,RAEM,≤ 0.2
20,QESG,≤ 0.2
21,PAED,≤ 0.2
22,HWQT,≤ 0.2
23,PWDS,≤ 0.2
24,LDHT,≤ 0.2

row,Variant,one-hybrid fitness for binding NBS DNA
1,FALY,≤ 0.2
2,NIIG,≤ 0.2
3,NWES,≤ 0.2
4,PLGF,≤ 0.2
5,SEGW,≤ 0.2
6,HDTG,≤ 0.2
7,DIYS,≤ 0.2
8,KSCK,≤ 0.2
9,YPYS,≤ 0.2
10,EMRQ,≤ 0.2
11,VWKD,≤ 0.2
12,NFNV,≤ 0.2
13,RYRI,≤ 0.2
14,NYNI,≤ 0.2
15,FKHI,≤ 0.2
16,PTLR,≤ 0.2
17,RSGR,0.459
18,STWG,≤ 0.2
19,IKTT,≤ 0.2
20,MWSC,≤ 0.2
21,FNLI,≤ 0.2
22,HRLC,≤ 0.2
23,YDKC,≤ 0.2
24,ICCL,≤ 0.2

row,Variant,one-hybrid fitness for binding NBS DNA
1,GWWL,≤ 0.2
2,CEFG,≤ 0.2
3,LFLY,≤ 0.2
4,EPRN,≤ 0.2
5,RMKC,0.4
6,QDAT,≤ 0.2
7,NHVC,≤ 0.2
8,GCLG,≤ 0.2
9,HLNV,≤ 0.2
10,IHHG,≤ 0.2
11,RALK,≤ 0.2
12,QPEC,≤ 0.2
13,HLDM,≤ 0.2
14,FRGL,≤ 0.2
15,CYGT,≤ 0.2
16,RQDM,≤ 0.2
17,PTKC,≤ 0.2
18,AFDT,≤ 0.2
19,RWAT,≤ 0.2
20,DWDG,≤ 0.2
21,DYKY,≤ 0.2
22,ARNG,≤ 0.2
23,PPCI,≤ 0.2
24,SCMR,≤ 0.2

row,Variant,one-hybrid fitness for binding NBS DNA
1,NETT,≤ 0.2
2,ALTP,≤ 0.2
3,FITS,≤ 0.2
4,TECR,≤ 0.2
5,ALTK,≤ 0.2
6,RLMF,≤ 0.2
7,NCMT,≤ 0.2
8,GDSS,≤ 0.2
9,HPPF,≤ 0.2
10,YEWS,≤ 0.2
11,MGTI,≤ 0.2
12,LPIL,≤ 0.2
13,VAWR,≤ 0.2
14,SWIV,≤ 0.2
15,TMAP,≤ 0.2
16,LKSC,≤ 0.2
17,TRFM,≤ 0.2
18,GGGG,≤ 0.2
19,ATDV,≤ 0.2
20,ATSE,≤ 0.2
21,DCCS,≤ 0.2
22,FADS,≤ 0.2
23,TKRR,0.236
24,GLYV,≤ 0.2

row,Variant,one-hybrid fitness for binding NBS DNA
1,MEKT,≤ 0.2
2,YLTV,≤ 0.2
3,FHRM,≤ 0.2
4,RLKE,≤ 0.2
5,DRFA,≤ 0.2
6,WQAH,≤ 0.2
7,PLTA,≤ 0.2
8,QFIW,≤ 0.2
9,APRM,≤ 0.2
10,HYTS,≤ 0.2
11,KIET,≤ 0.2
12,YWTY,≤ 0.2
13,DLSY,≤ 0.2
14,ARLD,≤ 0.2
15,VEPE,≤ 0.2
16,LCTM,≤ 0.2
17,MESE,≤ 0.2
18,SHKN,≤ 0.2
19,VTND,≤ 0.2
20,CSAT,≤ 0.2
21,QYMS,0.314
22,DTCT,≤ 0.2
23,PIWS,≤ 0.2
24,YTQC,≤ 0.2

row,Variant,one-hybrid fitness for binding NBS DNA
1,CCTA,≤ 0.2
2,QLKM,0.318
3,HWWG,≤ 0.2
4,AFEL,≤ 0.2
5,PLWT,≤ 0.2
6,PCND,≤ 0.2
7,MRRT,0.275
8,TKKI,≤ 0.2
9,ASAP,≤ 0.2
10,VWRI,≤ 0.2
11,VAFV,≤ 0.2
12,TWPP,≤ 0.2
13,PGMT,≤ 0.2
14,GISM,≤ 0.2
15,WSWC,≤ 0.2
16,RYVR,0.269
17,QCKK,0.485
18,HPAG,≤ 0.2
19,VCCG,≤ 0.2
20,PTGV,≤ 0.2
21,HSHL,≤ 0.2
22,CVRY,≤ 0.2
23,RWSN,≤ 0.2
24,PIGL,≤ 0.2

row,Variant,one-hybrid fitness for binding NBS DNA
1,ECLT,≤ 0.2
2,LTIY,≤ 0.2
3,HFLS,≤ 0.2
4,SCTG,≤ 0.2
5,EPSP,≤ 0.2
6,NRKK,≤ 0.2
7,KMRT,0.274
8,NQLC,≤ 0.2
9,PYVA,≤ 0.2
10,VCEG,≤ 0.2
11,RSRQ,≤ 0.2
12,IDAS,≤ 0.2
13,WHRH,≤ 0.2
14,YGPC,≤ 0.2
15,TSLH,≤ 0.2
16,GANG,≤ 0.2
17,LETS,≤ 0.2
18,RQIS,≤ 0.2
19,LGAV,≤ 0.2
20,NIFG,≤ 0.2
21,PQDL,≤ 0.2
22,PQFA,≤ 0.2
23,ETNS,≤ 0.2
24,WQSF,≤ 0.2

row,Variant,one-hybrid fitness for binding NBS DNA
1,IRTV,≤ 0.2
2,VKPH,≤ 0.2
3,EDPN,≤ 0.2
4,KRAN,≤ 0.2
5,RCCE,≤ 0.2
6,MHTW,≤ 0.2
7,REKT,≤ 0.2
8,GTYV,≤ 0.2
9,RLKW,≤ 0.2
10,GNGR,≤ 0.2
11,QYHR,0.541
12,LMPR,≤ 0.2
13,MRCI,≤ 0.2
14,KFSG,≤ 0.2
15,SSHW,≤ 0.2
16,LHTW,≤ 0.2
17,EKRT,≤ 0.2
18,RGMY,≤ 0.2
19,AEIL,≤ 0.2
20,AFLT,≤ 0.2
21,EVHV,≤ 0.2
22,KNES,≤ 0.2
23,GYWM,≤ 0.2
24,HKYS,≤ 0.2

row,Variant,one-hybrid fitness for binding NBS DNA
1,WPEH,≤ 0.2
2,SNSA,≤ 0.2
3,TFHS,≤ 0.2
4,VLWR,≤ 0.2
5,AVDD,≤ 0.2
6,PGRY,≤ 0.2
7,RRVG,0.298
8,SHTV,≤ 0.2
9,QHTY,≤ 0.2
10,KSSK,≤ 0.2
11,GARY,≤ 0.2
12,RLKG,≤ 0.2
13,TWDT,≤ 0.2
14,TNMT,≤ 0.2
15,RQVW,≤ 0.2
16,TQTI,≤ 0.2
17,NSWL,≤ 0.2
18,RVIS,0.206
